Assay results published in PubChem BioAssay AID485364 (National Center for Advancing Translational Sciences (NCATS), 2010).
Out of some 360,000 compounds screened, about 11,000 (3.1%) were called active. The shares of active, inactive and inconclusive entries below differ from those in the screen. Calls come from the whole dose curve; as a rule, active = well fitted inhibition curve with a large enough effect; inconclusive = small, poorly fitted or top-dose-only effect; inactive = no such curve, though single readings can be large or run the other way. No potency is given beside an inconclusive call; the fits are too rough.

Biological target: Schistosoma mansoni thioredoxin glutathione reductase (TGR) (UniProt Q962Y6)
Experiment: qHTS Assay for the Inhibitors of Schistosoma Mansoni Peroxiredoxins; note: nearly all actives have a fitted effect of over 60% in size
Settings: purified TGR, DTNB reduction, TNB absorbance 405 nm; series mostly up to 114 µM
How it was run: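 First, TGR (20 nM dispensed) and NADPH were mixed with compound. Second, a 15 min room-temperature incubation followed. Third, further NADPH and then DTNB were added to start the reaction. Finally, TNB absorbance was monitored kinetically.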
Potency is the fitted concentration of half-maximal effect; tags give direction and shape of the fitted curve.

Compound	Potency
O=C(O)c1cc2nc(-c3cccs3)cc(C(F)(F)F)n2n1	inconclusive [inhibitor, partial curve]
O=C(c1ccc(F)cc1)N1CCN(c2cc(=O)[nH]nc2-c2ccccc2)CC1	inactive
COc1ccccc1CNc1nc(-c2ccco2)nn1S(=O)(=O)c1ccc2ccccc2c1	inconclusive [inhibitor, partial curve]
O=S(=O)(c1ccc(Cl)cc1)N1CCN(Cc2ccc(O)c3ncccc23)CC1	inconclusive [inhibitor, partial curve]
CC(Nc1ccc(N2CCOCC2)cc1)C(=O)N1c2ccccc2CC1C (centres undefined)	active: 79.4 µM
CCCC1OC23CCCCC2C(C#N)(C#N)C1(C#N)C(=N)O3 (centres undefined)	inconclusive [inhibitor, partial curve]
CCOC(=O)c1c(C)[nH]c(C(=O)C(C)N2CCCC2)c1C (centres undefined)	inconclusive [inhibitor, partial curve]
Oc1ccc(-c2onc3ccc(Cl)cc23)cc1	inconclusive [inhibitor, single point]
O=C(c1cc2cc(Cl)ccc2[nH]1)N1CCN(C(=O)c2ccco2)CC1	active: 15.8 µM
CC(=O)c1cccc(NC(=O)N2CCC(NC(=O)c3ccco3)CC2)c1	inconclusive [inhibitor, partial curve]
CC(=O)Oc1ccc(C(=O)[C@H]2[C@H]3C(=O)N(c4ccc(C)cc4)C(=O)[C@H]3[C@@H]3C=CC=NN32)cc1	inconclusive [inhibitor, partial curve]
CCCc1nc2ccc(Br)cc2c(=O)n1-c1ccc([N+](=O)[O-])c(C(F)(F)F)c1	inactive
O=c1c2cc(NC(=S)NCc3cccnc3)ccc2nc2n1CCCCC2	active: 56.2 µM
CCC1CCCCN1C(=O)CSc1nc2c(c(=O)n1C)SC(C)C2 (centres undefined)	inconclusive [inhibitor, partial curve]
CCOC(=O)c1cc2occc2n1CC(=O)NC1CCC(C)CC1 (centres undefined)	inconclusive [inhibitor, single point]
CC(=O)c1ccc(NC(=S)N2C(C)CCCC2C)cc1 (centres undefined)	active: 35.5 µM
Cc1ccc(Sc2c([N+](=O)[O-])ncn2C)cc1	inconclusive [inhibitor, partial curve]
C=CCOC(=O)C1=C[C@@H](c2ccc(Br)cc2)C[C@@H](OCc2ccc(CO)cc2)O1	inconclusive [inhibitor, partial curve]
Cc1ccc(S(=O)(=O)CC(=O)c2ccc([N+](=O)[O-])cc2)cc1	inconclusive [inhibitor, full curve]
NS(=O)(=O)c1ccc(CNC(=O)c2ccc(Cl)c([N+](=O)[O-])c2)cc1	inconclusive [inhibitor, partial curve]
Cc1sc(NC(=O)c2ccco2)c(C(c2ccccc2)N2CCC(C)CC2)c1C (centres undefined)	inactive
COc1cccc(-c2cn3nc4c(nc3n2)CCCC4)c1	inconclusive [inhibitor, partial curve]
Cc1ccc(C2=NN(C(=O)CSc3nnnn3C)C(c3ccco3)C2)cc1 (centres undefined)	inconclusive [inhibitor, partial curve]

Compound	Potency
CC(C)C(C(=O)NCc1ccco1)N(C(=O)CNS(=O)(=O)c1ccc(Cl)cc1)C1CCCC1 (centres undefined)	active: 44.7 µM
Cc1ccsc1-c1nc(CN2CCCC2c2ccc(F)cc2)c(C)o1 (centres undefined)	inconclusive [inhibitor, partial curve]
c1ccc(-n2nnc3ccccc32)cc1	inactive
CCC(=O)N1CCc2cc(Br)cc(S(=O)(=O)N3CCCC(C(=O)Nc4ccc(C(C)C)cc4)C3)c21 (centres undefined)	inactive
Nc1cc(CN2C(=O)c3ccccc3C2=O)cc(Cl)c1O	inconclusive [inhibitor, partial curve]
Cc1cc(C)nc(SCNC(=O)c2ccc(F)cc2)n1	inconclusive [inhibitor, single point]
COc1cccc(CSc2nc(-c3ccccc3F)nc3c2Cc2c(CO)cnc(C)c2O3)c1	inconclusive [inhibitor, partial curve]
S=C1NC(c2ccccc2)N2C(=S)NC(c3ccccc3)N12 (centres undefined)	inconclusive [inhibitor, single point]
Cc1ccc(N2CCN(S(=O)(=O)c3ccc(Cl)c4ccccc34)CC2)c(C)c1	inactive
O=C1CCCc2cc(S(=O)(=O)NCC3CCC(C(=O)NCc4ccc(F)cc4)CC3)ccc2N1 (centres undefined)	inconclusive [inhibitor, single point]
O=C(CC(c1ccccc1)c1cc(Br)ccc1O)NCCCN1CCOCC1 (centres undefined)	inconclusive [inhibitor, partial curve]
COc1ccc(OC)c(C2C=C(c3ccc(C)c(C)c3)Nc3nnnn32)c1 (centres undefined)	inconclusive [inhibitor, partial curve]
O=C1CCCN1CCC1CCN(C2CC(=O)N(c3ccc(F)cc3)C2=O)CC1 (centres undefined)	inconclusive [inhibitor, partial curve, poor fit]
Cc1csc(SCC(=O)Nc2ccccc2C)n1	inactive
CCCS(=O)(=O)c1c(S(=O)(=O)CCC)c2c(N)cccn2c1C(=O)c1ccc(F)cc1	active: 22.4 µM
CCOC(=O)c1ccc(Nc2nnc(C)c3ccccc23)cc1	inconclusive [inhibitor, partial curve]
O=C(CSc1nnc(NC(=O)c2ccccc2Cl)s1)Nc1ccc2c(c1)oc1ccccc12	inactive
O=S(=O)(Nc1ccc(N2CCCCC2)cc1)c1ccccc1F	inconclusive [inhibitor, partial curve]
CCCn1c(CC)nc([N+](=O)[O-])c1S(=O)(=O)c1ccccc1	inconclusive [inhibitor, full curve, poor fit]
Nn1c(SCC(=O)Nc2ccc(S(N)(=O)=O)cc2)nnc1C(F)(F)F	inactive
CN(Cc1cccnc1)C(=O)CC1C(=O)NCCN1Cc1ccc(-c2ccccc2)cc1 (centres undefined)	inconclusive [inhibitor, partial curve]
CC(=O)Nc1ccc(NC(=O)CSc2ccc(-c3ccco3)nn2)cc1	active: 8.91 µM
COc1ccc(S(=O)(=O)CCC(=O)Nc2ccc(OC)cc2OC)cc1	inconclusive [inhibitor, partial curve]

Compound	Potency
Cc1ccc(CNC(=O)CCc2cn(Cc3ccc(C)cc3)c3ccccc23)cc1	inactive
N#CC1=C(N)Oc2cc3ccccc3cc2C1c1cccnc1 (centres undefined)	inconclusive [inhibitor, single point]
Cc1cc(=O)n2[nH]c(-c3ccccc3)cc2n1	inactive
O=[N+]([O-])c1ccc(O)c(C=Nc2cccc3ncccc23)c1	inconclusive [inhibitor, partial curve]
Cc1nc(SCc2cccc(F)c2)c2oc3ccccc3c2n1	inactive
Clc1ccc(/C=N/c2c(-c3ccco3)nc3ccccn23)cc1	inconclusive [inhibitor, full curve, poor fit]
CCCOc1ccc(C2C(C(=O)c3ccc(C)o3)=C(O)C(=O)N2Cc2ccco2)cc1 (centres undefined)	inconclusive [inhibitor, partial curve]
COC(=O)/C(=C(/F)SCC(C)=O)C(F)(F)F	inconclusive [inhibitor, partial curve]
O=C(c1cc([N+](=O)[O-])ccc1N1CCOCC1)N1CCN(S(=O)(=O)c2cc(Cl)ccc2Cl)CC1	inactive
CCn1c(SCC(=O)c2cc(OC)ccc2OC)nnc1C(C)C	inconclusive [inhibitor, full curve]
C=CCOc1ccc(C2/C(=C(/O)c3ccc(OC)cc3)C(=O)C(=O)N2CCN2CCNCC2)cc1 (centres undefined)	inconclusive [inhibitor, partial curve]
CC1CCCN(C(=O)Nc2cccc(NC(=O)N3CCCC(C)C3C)c2)C1C (centres undefined)	inconclusive [inhibitor, full curve, poor fit]
CCOC(=O)c1cnc2c(C)cc(Cl)cc2c1NCCCN1CCOCC1	inconclusive [inhibitor, full curve, poor fit]
Cc1ccc(C)c(C(=O)COC(=O)c2cc([N+](=O)[O-])ccc2N2CCOCC2)c1	inactive
Cc1ccc(-c2nc(NC(=O)c3nn(C)cc3[N+](=O)[O-])sc2C)cc1C	inactive
O=C(NCc1ccco1)/C(=C/c1ccco1)NC(=O)c1ccccc1	active: 39.8 µM
COc1cccc(OC)c1C(=O)NC(=O)NNc1cc(C(F)(F)F)cc(C)n1	inconclusive [inhibitor, full curve, poor fit]
COc1ccc(NC(=O)CCCc2nc(-c3ccco3)no2)c(OC)c1	inactive
O=c1[nH]c(=S)c2ncn(-c3ccccc3)c2[nH]1	inconclusive [inhibitor, partial curve]
CCc1nnc(NS(=O)(=O)c2ccc(Nc3ccc([N+](=O)[O-])c4nonc34)cc2)s1	inconclusive [inhibitor, partial curve]
O=C(NC(=S)NNC(=O)c1ccco1)c1ccc(F)cc1	inconclusive [inhibitor, partial curve]
O=C(c1cc(-c2ccco2)nc2ccccc12)N(Cc1nnc(-c2ccc(Cl)cc2)o1)C1CC1	active: 8.91 µM
COc1ccc(Oc2c(C)oc3cc(OC(=O)N(C)C)ccc3c2=O)cc1	active: 22.4 µM
